Assay results: the supplement of paper PMC10037445
In all, about 2,900 compounds were measured (“NF-kB SEAP reporter activity, fold change vs agonist alone”: median about 0.99, highest 2% from about 2.6 on). The list shows a part of the results.

Tests used:
RAW-Dual [1] = assay: NF-kB SEAP reporter activity, fold change vs agonist alone; cytotoxicity flag (confluency mask): not cytotoxic; higher = enhanced NF-kB activity
Procedure, shortened: (§1)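 Cytotoxic wells were those whose IncuCyte confluency was below 70% of agonist controls in both mask sets. The cells were RAW-Dual macrophages at 50,000 cells/well in DMEM on 384-well plates, dosed with 50 nL of library stock by pin tool, stimulated with a PRR agonist 1 h later, and kept at 37 °C, 5% CO2 for 20 hours. IRF and NF-κB reporter activity, as fold change over agonist-alone wells, came from supernatant read by QuantiLuc luminescence and QuantiBlue absorbance, respectively.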

RAW-Dual [2] = assay: NF-kB SEAP reporter activity, fold change vs agonist alone; higher = enhanced NF-kB activity
Procedure, shortened: as §1

RAW-Dual [3] = assay: NF-kB SEAP reporter activity, fold change vs agonist alone; cytotoxicity flag (confluency mask): cytotoxic (confluency <70% of control); higher = enhanced NF-kB activity
Procedure, shortened: as §1

[4] = agonist: ODN 1826 (TLR9) 0.5 ug/mL
[5] = agonist: Pam2CSK4 (TLR2/6) 0.1 ug/mL
[6] = agonist: Pam3CSK4 (TLR2/1) 0.1 ug/mL
[7] = library stock concentration (final ~1000-fold dilution): 10 mM, cytotoxicity flag (confluency mask): not cytotoxic, agonist: Imiquimod (TLR7) […]
[8] = library stock concentration (final ~1000-fold dilution): 10 mM, cytotoxicity flag (confluency mask): not cytotoxic, agonist: MPLA (TLR4) […]
[9] = library stock concentration (final ~1000-fold dilution): 10 mM, cytotoxicity flag (confluency mask): cytotoxic (confluency <70% of control), agonist: Imiquimod (TLR7) […]
[10] = library stock concentration (final ~1000-fold dilution): 10 mM, cytotoxicity flag (confluency mask): cytotoxic (confluency <70% of control), agonist: MPLA (TLR4) […]

Compound: CC(Nc1ncnc(N)c1C#N)c1cc2cccc(-c3ccc(=O)n(C)c3)c2c(=O)n1C(C)C (configuration not stated) (library stock concentration (final ~1000-fold dilution): 10 mM)
- NF-kB SEAP reporter activity (RAW-Dual [1]; agonist: LPS (TLR4) 0.1 ug/mL): 4.83
- NF-kB SEAP reporter activity (RAW-Dual [1]; [4]): 0.722
- NF-kB SEAP reporter activity (RAW-Dual [1]; [5]): 1.22
- NF-kB SEAP reporter activity (RAW-Dual [1]; [6]): 3.02

Compound: CC(Nc1ncnc(N)c1C#N)c1cc2cccc(-c3ccc(=O)n(C)c3)c2c(=O)n1C(C)C (configuration not stated)
- NF-kB SEAP reporter activity (RAW-Dual [2]; [7]): 1.22
- NF-kB SEAP reporter activity (RAW-Dual [2]; [8]): 2.8

Compound: COc1ccc2[nH]cc(C=C3C(=O)Nc4ccc(NC(=O)CCN5CCCCC5)cc43)c2c1 (library stock concentration (final ~1000-fold dilution): 10 mM)
- NF-kB SEAP reporter activity (RAW-Dual [3]; agonist: LPS (TLR4) 0.1 ug/mL): 4.16
- NF-kB SEAP reporter activity (RAW-Dual [3]; [4]): 0.42
- NF-kB SEAP reporter activity (RAW-Dual [3]; [5]): 1.36
- NF-kB SEAP reporter activity (RAW-Dual [3]; [6]): 2.01

Compound: COc1ccc2[nH]cc(C=C3C(=O)Nc4ccc(NC(=O)CCN5CCCCC5)cc43)c2c1
- NF-kB SEAP reporter activity (RAW-Dual [2]; [9]): 1.4
- NF-kB SEAP reporter activity (RAW-Dual [2]; [10]): 2

Compound: CCCCCOc1ccc(-c2cc(-c3ccc(C(=O)NC4CC(O)C(O)NC(=O)C5C(O)C(C)CN5C(=O)C(C(O)CC(N)=O)NC(=O)C(C(O)C(O)c5ccc(O)c(OS(=O)(=O)O)c5)NC(=O)C5CC(O)CN5C(=O)C(C(C)O)NC4=O)cc3)no2)cc1 (configuration not stated)
- NF-kB SEAP reporter activity (RAW-Dual [2]; library stock concentration (final ~1000-fold dilution): 10 mM water, cytotoxicity flag (confluency mask): not cytotoxic, agonist: Imiquimod (TLR7) […]): 0.949
- NF-kB SEAP reporter activity (RAW-Dual [2]; library stock concentration (final ~1000-fold dilution): 10 mM water, cytotoxicity flag (confluency mask): not cytotoxic, agonist: MPLA (TLR4) […]): 1.14

Compound: CCCCCOc1ccc(-c2cc(-c3ccc(C(=O)NC4CC(O)C(O)NC(=O)C5C(O)C(C)CN5C(=O)C(C(O)CC(N)=O)NC(=O)C(C(O)C(O)c5ccc(O)c(OS(=O)(=O)O)c5)NC(=O)C5CC(O)CN5C(=O)C(C(C)O)NC4=O)cc3)no2)cc1 (configuration not stated) (library stock concentration (final ~1000-fold dilution): 10 mM water)
- NF-kB SEAP reporter activity (RAW-Dual [1]; agonist: LPS (TLR4) 0.1 ug/mL): 1.2
- NF-kB SEAP reporter activity (RAW-Dual [1]; [4]): 1.05
- NF-kB SEAP reporter activity (RAW-Dual [1]; [5]): 0.968
- NF-kB SEAP reporter activity (RAW-Dual [1]; [6]): 1.09

Compound: CN1CCN(C(=O)c2cc3cc(Cl)ccc3[nH]2)CC1 (library stock concentration (final ~1000-fold dilution): 10 mM)
- NF-kB SEAP reporter activity (RAW-Dual [1]; agonist: LPS (TLR4) 0.1 ug/mL): 0.992
- NF-kB SEAP reporter activity (RAW-Dual [1]; [4]): 0.851
- NF-kB SEAP reporter activity (RAW-Dual [1]; [5]): 1.01
- NF-kB SEAP reporter activity (RAW-Dual [1]; [6]): 0.978

Compound: CN1CCN(C(=O)c2cc3cc(Cl)ccc3[nH]2)CC1
- NF-kB SEAP reporter activity (RAW-Dual [2]; [7]): 1.03
- NF-kB SEAP reporter activity (RAW-Dual [2]; [8]): 0.988

Compound: Brc1ccc2[nH]ccc2c1
- NF-kB SEAP reporter activity (RAW-Dual [2]; [8]): 1.26

Compound: Brc1ccc2[nH]ccc2c1 (library stock concentration (final ~1000-fold dilution): 10 mM)
- NF-kB SEAP reporter activity (RAW-Dual [1]; agonist: LPS (TLR4) 0.1 ug/mL): 1.61
- NF-kB SEAP reporter activity (RAW-Dual [1]; [4]): 1.12
- NF-kB SEAP reporter activity (RAW-Dual [1]; [5]): 1.18
- NF-kB SEAP reporter activity (RAW-Dual [1]; [6]): 1.11

Compound: COc1ccc(CCC(=O)c2c(O)cc(O[C@@H]3O[C@H](CO)[C@@H](O)[C@H](O)[C@H]3O[C@@H]3O[C@@H](C)[C@H](O)[C@@H](O)[C@H]3O)cc2O)cc1O
- NF-kB SEAP reporter activity (RAW-Dual [2]; [7]): 0.55
- NF-kB SEAP reporter activity (RAW-Dual [2]; [8]): 0.935

Compound: COc1ccc(CCC(=O)c2c(O)cc(O[C@@H]3O[C@H](CO)[C@@H](O)[C@H](O)[C@H]3O[C@@H]3O[C@@H](C)[C@H](O)[C@@H](O)[C@H]3O)cc2O)cc1O (library stock concentration (final ~1000-fold dilution): 10 mM)
- NF-kB SEAP reporter activity (RAW-Dual [1]; agonist: LPS (TLR4) 0.1 ug/mL): 0.951
- NF-kB SEAP reporter activity (RAW-Dual [1]; [4]): 1.05
- NF-kB SEAP reporter activity (RAW-Dual [1]; [5]): 1.1
- NF-kB SEAP reporter activity (RAW-Dual [1]; [6]): 1.04

Compound: CC(C)(C)CC(C)(C)c1ccc(OCCOCC[N+](C)(C)Cc2ccccc2)cc1
- NF-kB SEAP reporter activity (RAW-Dual [2]; [9]): 1.76
- NF-kB SEAP reporter activity (RAW-Dual [2]; [10]): 1.66

Compound: CC(C)(C)CC(C)(C)c1ccc(OCCOCC[N+](C)(C)Cc2ccccc2)cc1 (library stock concentration (final ~1000-fold dilution): 10 mM)
- NF-kB SEAP reporter activity (RAW-Dual [3]; agonist: LPS (TLR4) 0.1 ug/mL): 1.95
- NF-kB SEAP reporter activity (RAW-Dual [3]; [4]): 0.804
- NF-kB SEAP reporter activity (RAW-Dual [3]; [5]): 0.197
- NF-kB SEAP reporter activity (RAW-Dual [3]; [6]): 0.384

Compound: O=C(O)c1cc(I)ccc1NC(=O)C(Cc1ccccc1)NCc1ccccc1 (configuration not stated)
- NF-kB SEAP reporter activity (RAW-Dual [2]; [7]): 0.929
- NF-kB SEAP reporter activity (RAW-Dual [2]; [8]): 1.05

Compound: O=C(O)c1cc(I)ccc1NC(=O)C(Cc1ccccc1)NCc1ccccc1 (configuration not stated) (library stock concentration (final ~1000-fold dilution): 10 mM)
- NF-kB SEAP reporter activity (RAW-Dual [1]; agonist: LPS (TLR4) 0.1 ug/mL): 0.888
- NF-kB SEAP reporter activity (RAW-Dual [1]; [4]): 0.931
- NF-kB SEAP reporter activity (RAW-Dual [1]; [5]): 0.941
- NF-kB SEAP reporter activity (RAW-Dual [1]; [6]): 1.13

Compound: COc1ccc(CCC(=O)Nc2nc3ccc(Cl)cc3s2)cc1OC
- NF-kB SEAP reporter activity (RAW-Dual [2]; [7]): 0.899
- NF-kB SEAP reporter activity (RAW-Dual [2]; [8]): 1.1

Compound: COc1ccc(CCC(=O)Nc2nc3ccc(Cl)cc3s2)cc1OC (library stock concentration (final ~1000-fold dilution): 10 mM)
- NF-kB SEAP reporter activity (RAW-Dual [1]; agonist: LPS (TLR4) 0.1 ug/mL): 0.883
- NF-kB SEAP reporter activity (RAW-Dual [1]; [4]): 0.897
- NF-kB SEAP reporter activity (RAW-Dual [1]; [5]): 1.01
- NF-kB SEAP reporter activity (RAW-Dual [1]; [6]): 1.37

Compound: CC(C(=O)Nc1cccc(N=Cc2c(O)ccc3ccccc23)c1)c1ccccc1 (configuration not stated) (library stock concentration (final ~1000-fold dilution): 10 mM)
- NF-kB SEAP reporter activity (RAW-Dual [1]; agonist: LPS (TLR4) 0.1 ug/mL): 6.64

Compound: Cc1cc2c(C(=O)NCC(C)c3ccccc3)c(O)c(O)cc2c(O)c1-c1c(C)cc2c(C(=O)NCC(C)c3ccccc3)c(O)c(O)cc2c1O (configuration not stated) (library stock concentration (final ~1000-fold dilution): 10 mM)
- NF-kB SEAP reporter activity (RAW-Dual [1]; agonist: LPS (TLR4) 0.1 ug/mL): 4.28
- NF-kB SEAP reporter activity (RAW-Dual [1]; [4]): 2.93
- NF-kB SEAP reporter activity (RAW-Dual [1]; [5]): 0.803
- NF-kB SEAP reporter activity (RAW-Dual [1]; [6]): 1.62

Compound: Cc1cc2c(C(=O)NCC(C)c3ccccc3)c(O)c(O)cc2c(O)c1-c1c(C)cc2c(C(=O)NCC(C)c3ccccc3)c(O)c(O)cc2c1O (configuration not stated)
- NF-kB SEAP reporter activity (RAW-Dual [2]; [7]): 1.84
- NF-kB SEAP reporter activity (RAW-Dual [2]; [8]): 2.27

Compound: Nc1nc(N)c2nc(-c3ccccc3)c(N)nc2n1 (library stock concentration (final ~1000-fold dilution): 10 mM)
- NF-kB SEAP reporter activity (RAW-Dual [1]; agonist: LPS (TLR4) 0.1 ug/mL): 1.2
- NF-kB SEAP reporter activity (RAW-Dual [1]; [4]): 1.19
- NF-kB SEAP reporter activity (RAW-Dual [1]; [5]): 1.27
- NF-kB SEAP reporter activity (RAW-Dual [1]; [6]): 1.23

Compound: Nc1nc(N)c2nc(-c3ccccc3)c(N)nc2n1
- NF-kB SEAP reporter activity (RAW-Dual [2]; [7]): 1.09
- NF-kB SEAP reporter activity (RAW-Dual [2]; [8]): 1.08

Compound: CCO.N#CC(=C(\N)Sc1ccccc1N)/C(C#N)=C(/N)Sc1ccccc1N (library stock concentration (final ~1000-fold dilution): 10 mM)
- NF-kB SEAP reporter activity (RAW-Dual [1]; agonist: LPS (TLR4) 0.1 ug/mL): 0.241
- NF-kB SEAP reporter activity (RAW-Dual [1]; [4]): 0.368
- NF-kB SEAP reporter activity (RAW-Dual [1]; [5]): 0.0792
- NF-kB SEAP reporter activity (RAW-Dual [1]; [6]): 0.146

Compound: CCO.N#CC(=C(\N)Sc1ccccc1N)/C(C#N)=C(/N)Sc1ccccc1N
- NF-kB SEAP reporter activity (RAW-Dual [2]; [7]): 0.206
- NF-kB SEAP reporter activity (RAW-Dual [2]; [8]): 0.236
